# Source: PubChem BioAssay AID493208 (National Center for Advancing Translational Sciences (NCATS), 2011)
# The whole screen tested about 44,000 compounds, of which about 340 (0.77%) were called active. About 5% were inconclusive and are not listed. Calls come from the whole dose curve; as a rule, active = well fitted inhibition curve with a large enough effect; inconclusive = small, poorly fitted or top-dose-only effect; inactive = flat fitted curve, though single readings scatter. The list shows a part of the results.
# Assay: Acumen qHTS Assay for Inhibitors of the mTORC1 Signaling Pathway in MEF (Tsc2-/-, p53-/-) Cells: Sytravon;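 note: plate controls were DMSO for no effect and rapamycin for full effect; nearly all actives have a fitted effect of over 50% in size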
# Details: phospho-rpS6 immunofluorescence/PI, 24 h; series mostly up to 38.3 µM; activity change, negative = inhibition: at the top concentration
# Method in brief: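 Plate MEFs (Tsc2-/-, p53-/-, empty vector) in DMEM/10% FBS; after 24 h add compound, incubate 24 h at 37 degree Celsius; fix in PFA/TX-100, block, stain phospho-rpS6 and 10 uM PI; scan at 488 nm; report % positive cells.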
row,SMILES,"activity change, negative = inhibition"
1,Cc1ccc(-c2n[nH]c3c2C(c2cccc(O)c2)N(c2ccc(C(=O)O)cc2)C3=O)cc1 (stereo not given),inactive: -4.45%
2,O=C(Cn1nc(N2CCN(c3ccccc3)CC2)ccc1=O)Nc1ccc(F)cc1F,inactive: -9.65%
3,COc1ccc(CNC(=O)C2CCCN(C(=O)N3CCOc4ccccc43)C2)cc1 (stereo not given),inactive: -5.7%
4,COc1cc(C2SC[C@H]3C(=O)N(c4ccccc4)C(=O)N23)cc(OC)c1OC (stereo not given in full),inactive: 2.27%
5,Cc1ccccc1-c1nc(CN2CCC(C(=O)NCCc3ccccc3)CC2)c(C)o1,inactive: 1.14%
6,O=C(CCCn1c(=O)c2ccccc2n(CC(=O)Nc2cccc(C(F)(F)F)c2)c1=O)NCc1ccc2c(c1)OCO2,inactive: -1.11%
7,CCCN(CCC)S(=O)(=O)c1ccc2c(c1)N(CC(=O)NCc1ccc(F)cc1Cl)C(=O)CS2,inactive: -3.18%
8,O=C(NCc1cccn1Cc1ccccc1)Nc1ccc(Br)cc1F,inactive: -2.2%
9,O=C(Nc1ccccc1C(=O)OCc1cc(=O)n2ccsc2n1)c1ccc(Cl)cc1,inactive: 0%
10,O=C(COCc1cc(-c2ccc(F)cc2)on1)Nc1cccc(Cl)c1Cl,inactive: 0.0836%
11,CCCc1cc(=O)[nH]c2nnc(SCC(=O)Nc3ccc(OC)cc3)n12,inactive: -9.08%
12,Cc1ccc(S(=O)(=O)c2nnn3c2nc(NC(C)c2ccccc2)c2sccc23)cc1 (stereo not given),inactive: -8.88%
13,CCOc1ccc(N2CC(NC(=O)c3ccc(S(=O)(=O)N4CCCC4)cc3)CC2=O)cc1 (stereo not given),inactive: 0.37%
14,Cc1ccc(Cl)cc1NC(=O)Nc1nnc(N2CCCC(C)C2)s1 (stereo not given),inactive: -3.17%
15,COc1ccccc1CNC(=O)CCNS(=O)(=O)c1ccc2c(c1)CCCC(=O)N2,inactive: 2.92%
16,CCN(CC)S(=O)(=O)c1ccc2c(c1)nc(CN(C)C(=O)Nc1ccc(Cl)cc1)n2C,inactive: 0%
17,CCOC(=O)c1c(C)[nH]c(C)c1S(=O)(=O)NCC(=O)NCc1ccc(C)cc1,inactive: 0.613%
18,O=C(Cn1c(=O)n(Cc2ccc(Cl)cc2)c(=O)c2cccnc21)Nc1ccccc1C(F)(F)F,inactive: -12.6%
19,CN(Cc1ccc(F)cc1)S(=O)(=O)c1nnc(NC(=O)c2ccccc2Br)s1,inactive: -9.64%
20,Cc1ccc(NC(=O)CNC(=O)Cn2c(C)cc3ccccc3c2=O)cc1F,inactive: 7.41%

row,SMILES,"activity change, negative = inhibition"
1,Cc1ccc(-n2nc3c(=O)n(CCCC(=O)NCc4ccccc4C)nc(C)c3c2C)cc1,inactive: 2.41%
2,Cn1c(=O)oc2cc(S(=O)(=O)N3CCC(C(=O)NCc4ccccc4)CC3)ccc21,inactive: -1.62%
3,CCOC(=O)c1c(C)c(-c2ccccc2)n(CC(=O)NCc2cccc(OC)c2)c1C,inactive: -11.6%
4,O=C(NCc1cccn1Cc1ccccc1)Nc1cccc(C(F)(F)F)c1,inactive: -3.11%
5,CCOc1ccccc1C(=O)Nc1ccc(S(=O)(=O)Nc2onc(C)c2C)cc1,inactive: 3.1%
6,CC(=O)c1ccc(NC(=O)Cn2cnc3nc4c(cc3c2=O)CC(C)CC4)cc1 (stereo not given),inactive: -0.667%
7,CCOc1cccc(C2c3[nH]c4ccccc4c3CCN2C(=O)c2ccccc2F)c1 (stereo not given),inactive: 6.01%
8,Cc1ccc(F)cc1NC(=O)CCc1c(C)nn(-c2ccc(N3CCCC3)nn2)c1C,inactive: -5.52%
9,Cc1cccc(-c2nc3scc(CCNS(=O)(=O)c4c(C)noc4C)n3n2)c1,inactive: 0.477%
10,CCCCC(=O)Oc1ccc2oc(-c3ccc(OC)cc3)cc(=O)c2c1,inactive: -17.5%
11,CCOC(=O)c1c(SCC(=O)Nc2nc3ccccc3s2)nc(=O)[nH]c1C,inactive: -1.99%
12,CCOC(=O)c1cnc2cc(C(F)(F)F)ccc2c1N1CCN(c2cccc(Cl)c2)CC1,inactive: -0.723%
13,CCOc1cc(CNC(=O)c2ccc(Cn3c(=O)c4cccn4c4cccnc43)cc2)ccc1OC,inactive: 3.94%
14,CCN1CCN(Cc2nc3cc(NC(=O)c4cc(OC)c(OC)c(OC)c4)ccc3n2CC)CC1,inactive: 0%
15,Cc1ccc(CNC(=O)N2CCC(CN3CCC(C)CC3)CC2)cc1,inactive: -4.78%
16,COc1ccc(S(=O)(=O)c2cn(CC(=O)Nc3cc(C)ccc3C)c3ccccc3c2=O)cc1,inactive: -5.48%
17,COc1ccc(S(=O)(=O)n2nc(-c3ccco3)nc2NCc2ccc(N(C)C)cc2)cc1,inactive: -6.46%
18,CCC1CN(C(=O)NCc2ccc(C)cc2)c2cc(Cl)ccc2O1 (stereo not given),inactive: -8.69%
19,COc1ccc(NC(=O)Cn2cnc3sc(C)c(S(=O)(=O)N4CCN(c5ccccc5OC)CC4)c3c2=O)cc1OC,inactive: -0.289%
20,CCc1ccccc1NC(c1nnc(-c2cccc(F)c2)o1)c1ccc(F)cc1Cl (stereo not given),inactive: 1.71%

row,SMILES,"activity change, negative = inhibition"
1,Cc1ccc2scc(N3CCc4ccccc4C3)c(=O)c2c1,inactive: 0.949%
2,Cc1ccc(C)c(N2CCN(C(=O)Cn3ncc4c(=O)oc5ccccc5c43)CC2)c1,inactive: -5.82%
3,COc1cc(OC)cc(-c2nc3nc(C)c(CCC(=O)Nc4ccc(C)c(C)c4)c(C)n3n2)c1,inactive: 1.1%
4,CCC(C(=O)NCc1ccco1)n1nc(C)c2c(C)n(-c3ccc(C)cc3)nc2c1=O (stereo not given),inactive: -4.08%
5,Cn1c(=O)c2c(-c3cccc(Br)c3)n(C(C)(C)CO)cc2n(C)c1=O,inactive: -0.292%
6,COc1cccc(C(=O)N2CCN(CCc3ccncc3)CC2)c1,inactive: 0.307%
7,CN(C)c1ccc(CNC(=O)c2cccc(NC(=O)N3CCSc4ncccc43)c2)cc1,inactive: -15%
8,Cc1cccc(C(=O)NCC(=O)OCc2cc(=O)n3nc(CC(C)C)sc3n2)c1,inactive: 0.753%
9,Cc1cc2nc(-c3ccc(OCc4ccccc4Cl)cc3)cc(C(F)(F)F)n2n1,inactive: -0.931%
10,COc1ccccc1NC(=O)Cn1c(SCC(=O)N(C)c2ccccc2)nc2ccccc21,inactive: 6.49%
11,Cc1ccc(NS(=O)(=O)c2ccc3c(c2)n(C)c(=O)n3C)cc1C,inactive: 0.512%
12,O=C1N(Cc2ccccc2)c2ccc(Cl)cc2C1(O)c1c[nH]c2ccccc12 (stereo not given),inactive: -24.1%
13,COc1cccc2c1cc1c(=O)n(CC(=O)N3CCN(c4ccc(Cl)cc4)CC3)nc(C)n12,inactive: 0.621%
14,Fc1ccc(Nc2ncnc3onc(-c4cccc(Cl)c4)c23)c(F)c1,inactive: -1.8%
15,Cc1ccc(S(=O)(=O)NC2(C(F)(F)F)NC(=O)N(CCc3ccccc3)C2=O)cc1 (stereo not given),inactive: -6.34%
16,O=C(NCCn1cc(SCc2ccccc2Cl)c2ccccc21)c1cccs1,inactive: -1.64%
17,Cc1cc(C)cc(NC(=O)Cn2cc(S(=O)(=O)NC(C)(C)C)c(S(=O)(=O)NC(C)(C)C)c2)c1,inactive: -0.115%
18,CCOc1ccccc1NC(=O)CSc1nnc2[nH]c(=O)cc(-c3ccccc3)n12,inactive: -1.06%
19,O=C(Nc1ccccc1Cl)C1CCN(c2nc3ccccc3nc2C(F)(F)F)CC1,inactive: 3.15%
20,COc1ccc(CNC(=O)CN2C(=O)COc3ccc(S(=O)(=O)Nc4ccccc4)cc32)cc1,inactive: -11.8%
